Data as given in the supplement of paper PMC12217912.
This is one part of the list. The full chains were built here from the parent and the listed change. Values near 0.05 are background.

B1: TEV protease; numbered along this chain (parent)
chain: MGESLFKGPRDYNPISSSICHLTNESDGHTTSLYGIGFGPFIITNKHLFRRNNGTLVVQSLHGVFKVKDTTTLQQHLVDGRDMIIIRMPKDFPPFPQKLKFREPQREERICLVTTNFQTKSMSSMVSDTSCTFPSGDGIFWKHWIQTKDGQCGSPLVSTRDGFIVGIHSASNFTNTNNYFTSVPKNFMELLTNQEAQQWVSGWRLNADSVLWGGHKVFMVKPEEPFQPVKEATQL

Variants of: B1
Experiment: raw area under fraction-flipped curve 0-4 h after induction (AUC4h, not background-subtracted), DNA-recorder readout of cleavage of the substrate (dimensionless); higher = more cleavage of the substrate by the protease variant
Settings: temperature: 34 °C; time window: 0-4 h after rhamnose induction
Method: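 In vivo DNA recorder in E. coli TOP10(DE3) ΔrhaA at 34 °C. Each TEVp single-site mutant (parent TEVp 0) is paired with a single-site variant of the 7-mer TEVs (canonical ENLYFQ|S). The substrate sits between flexible linkers in a Bxb1-sfGFP-TEVs-SsrA fusion, so cleavage stabilises Bxb1 and speeds flipping of a recombination array, read by NGS. The value is the raw area under the fraction-flipped curve over 0-4 h after rhamnose induction (AUC4h), with ≥20 reads per time point. It is not background-subtracted; inactive controls average about 0.047.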
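Further: Bxb1 expression induced with 0.2% (w/v) L-rhamnose at OD600 near 0.5, cultures sampled hourly, flipped fraction per protease–substrate barcode pair counted by paired-end Illumina sequencing.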

Variant | area with substrate ANLYFQS | area with substrate FNLYFQS | area with substrate HNLYFQS | area with substrate INLYFQS | area with substrate KNLYFQS | area with substrate TNLYFQS | area with substrate VNLYFQS | area with substrate WNLYFQS | area with substrate GNLYFQS | area with substrate MNLYFQS
N186A | 0.0842 | 0.0589 | 0.0541 | 0.0747 | 0.0579 | 0.0717 | 0.0499 | 0.0639 | – | –
N186V | 0.0474 | – | 0.0641 | – | 0.0743 | 0.065 | – | 0.0563 | 0.0612 | 0.0809
N186Y | 0.0687 | 0.0509 | – | 0.0466 | – | 0.0619 | 0.0765 | 0.0444 | – | –
R51I | 0.0605 | 0.0597 | 0.0651 | – | 0.0513 | – | – | 0.0544 | 0.0601 | 0.0691
H168P | 0.042 | – | 0.046 | – | 0.0483 | – | 0.0429 | – | – | 0.0358
N172C | 0.0704 | – | 0.0532 | – | – | – | – | 0.0528 | – | –
E108Q | 0.0384 | 0.169 | 0.0593 | – | 0.0537 | 0.0607 | 0.0688 | 0.0585 | – | 0.0658
H62K | 0.0418 | – | 0.0619 | – | 0 | – | 0.0688 | 0.0761 | – | –
G138H | 0.051 | 0.0594 | – | 0.0682 | 0.0704 | – | 0.0363 | – | – | –
G138R | 0.0611 | – | 0.0662 | – | – | 0.039 | – | 0.0466 | – | –
I36P | 0.0487 | 0.031 | 0.0412 | – | – | 0.0368 | – | 0.0415 | – | –
S130R | 0.0402 | 0.0596 | – | 0.049 | – | 0.0541 | – | 0.0518 | 0.0515 | –
I167E | 0.0707 | – | – | 0.0546 | – | – | 0.0664 | 0.0463 | – | –
I167G | 0.0402 | – | – | – | – | – | – | 0.0372 | 0.0509 | –
F163H | 0.0769 | 0.0633 | 0.0597 | – | – | 0.0681 | – | – | – | –
D149R | 0.0742 | – | 0.0835 | 0.0407 | – | 0.0584 | 0.0603 | 0.0537 | – | –
K68R | 0.0395 | – | – | 0.0646 | 0.057 | 0.0754 | 0.078 | 0.0586 | – | –
Q75N | 0.0527 | – | – | – | 0.0637 | 0.0503 | – | 0.0625 | – | –
D137P | 0.0521 | – | – | 0.056 | – | – | 0.0754 | 0.0441 | – | –
G153R | 0.0273 | – | – | – | – | – | – | – | – | –

Variant | area with substrate ANLYFQS | area with substrate FNLYFQS | area with substrate HNLYFQS | area with substrate INLYFQS | area with substrate KNLYFQS | area with substrate TNLYFQS | area with substrate VNLYFQS | area with substrate WNLYFQS | area with substrate GNLYFQS | area with substrate MNLYFQS
G153V | 0.0461 | – | 0.0572 | – | 0.051 | 0.0589 | 0.0535 | – | 0.0744 | –
M83F | 0.0502 | 0.0565 | 0.0613 | – | 0.156 | – | – | 0.071 | 0.0574 | –
D161Q | 0.0661 | – | 0.0503 | – | 0.0574 | 0.0609 | 0.0365 | 0.0523 | – | 0.0499
R81H | 0.0681 | – | 0.0843 | 0.0657 | 0.0542 | 0.0592 | – | 0.0624 | 0.0705 | –
F65A | 0.0332 | 0.067 | 0.0611 | 0.0534 | – | 0.0836 | – | 0.0532 | – | 0.0541
R106G | 0.0677 | 0.0701 | 0.0604 | 0.0669 | 0.0618 | 0.0558 | – | 0.055 | 0.0652 | 0.0628
R106K | 0.0624 | – | 0.0393 | – | 0.0575 | – | – | – | 0.0769 | 0.0517
R106P | 0.0694 | 0.0548 | 0.0454 | – | 0.0624 | 0.059 | – | – | – | 0.0385
D79N | 0.0757 | 0.057 | 0.0521 | – | – | – | – | 0.0805 | 0.0634 | 0.0521
N45L | 0.0551 | 0.0604 | 0.0557 | – | 0.052 | 0.0615 | 0.0512 | 0.0568 | – | 0.0546
R102Y | 0.039 | – | – | 0.0345 | – | – | 0.0212 | – | – | –
K142Y | 0.0837 | 0.0551 | – | – | 0.0958 | – | – | – | – | 0.0604
K66S | 0.0681 | – | 0.071 | 0.0346 | 0.0573 | – | – | 0.0675 | 0.0542 | 0.0322
N116C | 0.0621 | – | 0.0417 | – | – | – | 0.0638 | 0.0404 | – | –
V126T | 0.0669 | – | 0.0432 | 0.0596 | – | 0.0665 | – | – | – | –
D69G | 0.0556 | – | – | – | – | 0.0529 | – | – | – | 0.0687
F101N | 0.0558 | 0.0361 | 0.0515 | 0.0401 | 0.0425 | 0.0321 | – | 0.0501 | – | 0.0478
F101W | 0.0699 | 0.0623 | 0.0653 | 0.0598 | – | 0.078 | – | 0.0478 | – | –
I164F | 0.0721 | – | – | – | – | – | – | 0.0579 | – | 0.045

Same assay, conditions: temperature: 34 °C; time window: 0-4 h after rhamnose induction

Variant | area with substrate PNLYFQS | area with substrate QNLYFQS | area with substrate SNLYFQS | area with substrate YNLYFQS | area with substrate LNLYFQS | area with substrate DNLYFQS | area with substrate NNLYFQS | area with substrate RNLYFQS
N186V | 0.0834 | 0.0626 | 0.0596 | 0.0482 | – | – | – | –
N186Y | – | – | 0.0565 | – | 0.0408 | – | – | –
R51I | 0.0639 | – | – | 0.0472 | 0.062 | – | – | –
H168P | 0.0552 | 0.0586 | 0.0483 | 0.0452 | 0.0589 | – | – | –
N172C | 0.0517 | – | 0.0613 | – | 0.0771 | 0.062 | – | –
E108Q | 0.0566 | 0.0679 | 0.0393 | 0.0539 | 0.0489 | – | 0.0541 | –
H62K | 0.0989 | – | – | – | 0.0714 | – | 0.0835 | –
G138H | – | 0.0531 | – | – | – | – | – | –
G138R | 0.078 | – | – | – | – | 0.0726 | 0.0353 | –
I36P | 0.0389 | – | 0.0425 | 0.0369 | – | – | – | –
S130R | 0.0596 | 0.0666 | 0.0534 | 0.0735 | 0.075 | 0.0478 | – | –
I167E | – | – | – | – | – | – | – | 0.0464
I167G | 0.0539 | – | 0.0475 | 0.0522 | – | – | 0.0515 | –
F163H | 0.061 | – | 0.0747 | – | – | – | 0.0596 | –
K68R | 0.0553 | – | 0.0686 | 0.0573 | 0.0566 | – | – | –
Q75N | – | – | – | – | 0.0703 | – | 0.0574 | –
D137P | – | 0.0722 | – | – | 0.0922 | 0.0986 | – | –
G153V | 0.0501 | – | 0.0437 | 0.0444 | – | – | 0.0559 | –

Variant | area with substrate PNLYFQS | area with substrate QNLYFQS | area with substrate SNLYFQS | area with substrate YNLYFQS | area with substrate LNLYFQS | area with substrate DNLYFQS | area with substrate NNLYFQS | area with substrate RNLYFQS
M83F | 0.0603 | 0.0591 | – | – | – | 0.0745 | 0.0543 | –
D161Q | – | – | 0.0561 | 0.0534 | 0.0568 | 0.071 | – | 0.055
R81H | – | – | 0.0541 | 0.0487 | 0.0757 | – | 0.0474 | –
F65A | 0.0711 | – | 0.0625 | – | 0.0591 | – | 0.0777 | –
R106G | – | – | – | – | 0.0718 | – | – | –
R106K | 0.0707 | – | 0.0632 | 0.0864 | – | – | – | –
R106P | – | – | – | 0.0594 | – | – | 0.0636 | –
D79N | 0.068 | – | 0.0683 | 0.0657 | 0.0643 | – | – | –
N45L | 0.0542 | – | 0.0642 | 0.0586 | 0.0589 | – | – | 0.0477
R102Y | 0.0543 | – | – | – | – | – | 0.0695 | –
K142Y | 0.0605 | – | – | 0.0559 | 0.0564 | – | – | –
K66S | – | – | – | 0.0548 | 0.0727 | – | – | –
N116C | 0.0481 | – | – | – | – | – | – | –
V126T | 0.0783 | – | – | 0.0638 | 0.0716 | – | – | –
D69G | – | – | – | – | 0.0493 | – | – | 0.048
F101N | 0.0418 | 0.03 | 0.049 | 0.0428 | 0.0557 | – | 0.0422 | –
F101W | 0.0523 | 0.0665 | – | 0.0483 | 0.0696 | – | 0.0754 | –
I164F | – | – | 0.0428 | 0.0555 | 0.0768 | – | 0.0447 | –
